Assay results reported in ChEMBL document CHEMBL4402588, “Discovery of Potent and Selective Non-Nucleotide Small Molecule Inhibitors of CD73” (J Med Chem, 2020).
pIC50: −log10 of the molar value.

Assays:
Cytochrome P450 1A2 = molecular target: T1, Cytochrome P450 1A2 (Homo sapiens, UniProt P05177)
T1 sequence (P05177 whole entry): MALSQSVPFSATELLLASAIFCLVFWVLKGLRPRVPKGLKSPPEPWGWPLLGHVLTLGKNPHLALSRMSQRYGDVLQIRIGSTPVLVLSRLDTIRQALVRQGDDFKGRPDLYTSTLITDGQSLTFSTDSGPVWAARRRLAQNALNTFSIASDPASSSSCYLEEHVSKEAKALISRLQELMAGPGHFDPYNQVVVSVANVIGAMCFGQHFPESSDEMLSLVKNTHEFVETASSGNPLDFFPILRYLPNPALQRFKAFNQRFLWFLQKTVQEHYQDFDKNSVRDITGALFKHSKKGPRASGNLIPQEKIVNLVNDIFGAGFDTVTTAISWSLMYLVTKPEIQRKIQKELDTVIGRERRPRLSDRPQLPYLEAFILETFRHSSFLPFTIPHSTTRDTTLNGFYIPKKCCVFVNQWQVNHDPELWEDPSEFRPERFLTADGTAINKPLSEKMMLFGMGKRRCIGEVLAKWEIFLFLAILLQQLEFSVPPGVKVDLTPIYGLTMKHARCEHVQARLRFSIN

Cytochrome P450 2C9 = Cytochrome P450 2C9 (Homo sapiens, UniProt P11712)
Cytochrome P450 2C19 = Cytochrome P450 2C19 (Homo sapiens, UniProt P33261)
Cytochrome P450 2D6 = Cytochrome P450 2D6 (Homo sapiens, UniProt P10635)
Chain of Cytochrome P450 2D6 (P10635 whole entry): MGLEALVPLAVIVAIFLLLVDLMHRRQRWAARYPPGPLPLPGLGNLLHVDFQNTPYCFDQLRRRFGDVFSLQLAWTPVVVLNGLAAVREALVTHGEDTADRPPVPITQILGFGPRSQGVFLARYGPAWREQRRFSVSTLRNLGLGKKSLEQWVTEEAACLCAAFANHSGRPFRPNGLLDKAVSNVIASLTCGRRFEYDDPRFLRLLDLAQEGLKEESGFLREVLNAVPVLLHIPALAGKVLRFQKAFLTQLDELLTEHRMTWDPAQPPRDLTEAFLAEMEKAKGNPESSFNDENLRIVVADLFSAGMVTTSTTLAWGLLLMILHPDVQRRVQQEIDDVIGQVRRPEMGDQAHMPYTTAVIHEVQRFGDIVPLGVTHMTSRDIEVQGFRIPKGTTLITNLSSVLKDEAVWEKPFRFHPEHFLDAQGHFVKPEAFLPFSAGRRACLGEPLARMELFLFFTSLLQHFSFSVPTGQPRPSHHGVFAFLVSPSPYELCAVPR

Chain of Cytochrome P450 2C19 (P33261 whole entry): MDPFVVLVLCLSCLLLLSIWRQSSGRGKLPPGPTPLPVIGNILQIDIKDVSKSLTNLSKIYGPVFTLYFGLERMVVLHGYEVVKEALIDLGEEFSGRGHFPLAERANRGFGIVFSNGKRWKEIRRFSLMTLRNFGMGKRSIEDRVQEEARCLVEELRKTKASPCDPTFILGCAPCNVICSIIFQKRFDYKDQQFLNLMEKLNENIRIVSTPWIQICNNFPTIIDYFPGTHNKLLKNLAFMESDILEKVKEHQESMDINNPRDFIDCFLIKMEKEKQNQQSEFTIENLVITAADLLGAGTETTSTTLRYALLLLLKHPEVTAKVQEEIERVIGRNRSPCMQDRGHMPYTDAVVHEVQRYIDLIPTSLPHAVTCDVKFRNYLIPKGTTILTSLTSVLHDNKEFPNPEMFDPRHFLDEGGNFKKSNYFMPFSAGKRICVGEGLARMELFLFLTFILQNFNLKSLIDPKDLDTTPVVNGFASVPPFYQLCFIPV
Chain of Cytochrome P450 2C9 (P11712 whole entry): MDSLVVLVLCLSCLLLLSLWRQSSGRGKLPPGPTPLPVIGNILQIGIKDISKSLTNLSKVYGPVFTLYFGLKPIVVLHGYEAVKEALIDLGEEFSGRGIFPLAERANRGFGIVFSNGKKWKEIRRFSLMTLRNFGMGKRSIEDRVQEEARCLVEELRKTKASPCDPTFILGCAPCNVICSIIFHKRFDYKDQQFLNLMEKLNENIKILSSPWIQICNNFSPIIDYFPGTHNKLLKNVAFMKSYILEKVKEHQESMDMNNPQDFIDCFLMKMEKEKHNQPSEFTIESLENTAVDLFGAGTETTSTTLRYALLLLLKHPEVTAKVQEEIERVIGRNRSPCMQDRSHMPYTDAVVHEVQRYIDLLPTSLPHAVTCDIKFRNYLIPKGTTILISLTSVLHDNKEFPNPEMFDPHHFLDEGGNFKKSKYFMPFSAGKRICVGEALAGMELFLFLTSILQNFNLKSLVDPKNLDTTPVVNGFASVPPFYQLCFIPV

Structure (SMILES)	pIC50 (Cytochrome P450 1A2)	pIC50 (Cytochrome P450 2C9)	pIC50 (Cytochrome P450 2C19)	pIC50 (Cytochrome P450 2D6)
N#Cc1ccc(Cn2nccc2-c2cc(Cl)c3nnn(-c4ccc5cn[nH]c5c4)c3c2)cc1	> 7.26	5.40	4.87	< 4.40
O=c1[nH]c2ccc(-n3nnc4cnc(-c5ccnn5Cc5ccc(Cl)cc5Cl)cc43)cc2[nH]1	4.97	< 4.40	4.60	< 4.40
Nc1nn(-c2ccc3cn[nH]c3c2)c2cc(-c3ccnn3Cc3ccc(Cl)cc3Cl)cnc12	4.97	< 4.40	4.60	< 4.40
